Reference: publication PMC10496494 (2023)

Target: T1, DDX24^WT (human wildtype DDX24, residues 28 to 859), purified recombinant (human, UniProt Q9GZR7 28-859)
T1 chain: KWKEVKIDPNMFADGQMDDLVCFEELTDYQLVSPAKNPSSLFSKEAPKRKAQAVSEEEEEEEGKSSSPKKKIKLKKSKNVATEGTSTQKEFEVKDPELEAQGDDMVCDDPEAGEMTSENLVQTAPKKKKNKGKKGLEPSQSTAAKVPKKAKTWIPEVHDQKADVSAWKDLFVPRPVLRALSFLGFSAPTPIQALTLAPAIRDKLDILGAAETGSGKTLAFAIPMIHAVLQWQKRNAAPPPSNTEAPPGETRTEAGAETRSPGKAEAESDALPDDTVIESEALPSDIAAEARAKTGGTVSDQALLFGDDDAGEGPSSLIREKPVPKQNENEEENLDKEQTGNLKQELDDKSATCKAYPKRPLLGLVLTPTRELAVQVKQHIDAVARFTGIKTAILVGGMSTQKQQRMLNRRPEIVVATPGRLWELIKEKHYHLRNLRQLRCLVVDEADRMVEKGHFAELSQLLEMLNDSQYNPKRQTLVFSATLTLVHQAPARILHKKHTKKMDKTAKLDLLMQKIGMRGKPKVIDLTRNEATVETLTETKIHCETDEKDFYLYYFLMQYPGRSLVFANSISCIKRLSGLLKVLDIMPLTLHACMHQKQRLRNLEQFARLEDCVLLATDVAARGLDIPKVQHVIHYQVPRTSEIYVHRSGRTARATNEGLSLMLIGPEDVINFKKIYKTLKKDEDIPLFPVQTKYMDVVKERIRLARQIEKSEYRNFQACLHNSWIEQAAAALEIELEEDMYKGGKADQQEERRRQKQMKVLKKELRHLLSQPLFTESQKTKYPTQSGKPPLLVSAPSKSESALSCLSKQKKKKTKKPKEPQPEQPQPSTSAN
Experiment: SPR; DDX24^WT immobilised, NPM1 as analyte

- Kd: 1.2 nM
B1: NPM1 (human wildtype nucleophosmin, […]), purified recombinant (domain or fragment)
chain: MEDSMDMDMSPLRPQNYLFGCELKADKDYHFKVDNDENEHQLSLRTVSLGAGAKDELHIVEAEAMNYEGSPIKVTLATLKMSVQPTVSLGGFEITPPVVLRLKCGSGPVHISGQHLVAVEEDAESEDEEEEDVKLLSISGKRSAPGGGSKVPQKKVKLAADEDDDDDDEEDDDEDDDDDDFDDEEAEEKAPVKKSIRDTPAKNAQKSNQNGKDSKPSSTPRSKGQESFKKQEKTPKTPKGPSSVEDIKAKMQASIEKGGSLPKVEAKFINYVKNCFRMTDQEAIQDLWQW
